Source: the supplement of paper PMC3334620
Over roughly 33,000 sequences, “E-score (-0.5 to 0.5)” has its median near -0.011; the highest 2% begin near 0.28. The list shows a part of the results.

biological target: T1, Gcr1 (UniProt P07261); experiment: PBM E-score (8-mer binding enrichment) (E-score (-0.5 to 0.5)); higher = stronger / more preferred TF binding; most listed sequences are background and not binding sites; settings: protein concentration: 100 nM; construct: GST-full length
T1 sequence: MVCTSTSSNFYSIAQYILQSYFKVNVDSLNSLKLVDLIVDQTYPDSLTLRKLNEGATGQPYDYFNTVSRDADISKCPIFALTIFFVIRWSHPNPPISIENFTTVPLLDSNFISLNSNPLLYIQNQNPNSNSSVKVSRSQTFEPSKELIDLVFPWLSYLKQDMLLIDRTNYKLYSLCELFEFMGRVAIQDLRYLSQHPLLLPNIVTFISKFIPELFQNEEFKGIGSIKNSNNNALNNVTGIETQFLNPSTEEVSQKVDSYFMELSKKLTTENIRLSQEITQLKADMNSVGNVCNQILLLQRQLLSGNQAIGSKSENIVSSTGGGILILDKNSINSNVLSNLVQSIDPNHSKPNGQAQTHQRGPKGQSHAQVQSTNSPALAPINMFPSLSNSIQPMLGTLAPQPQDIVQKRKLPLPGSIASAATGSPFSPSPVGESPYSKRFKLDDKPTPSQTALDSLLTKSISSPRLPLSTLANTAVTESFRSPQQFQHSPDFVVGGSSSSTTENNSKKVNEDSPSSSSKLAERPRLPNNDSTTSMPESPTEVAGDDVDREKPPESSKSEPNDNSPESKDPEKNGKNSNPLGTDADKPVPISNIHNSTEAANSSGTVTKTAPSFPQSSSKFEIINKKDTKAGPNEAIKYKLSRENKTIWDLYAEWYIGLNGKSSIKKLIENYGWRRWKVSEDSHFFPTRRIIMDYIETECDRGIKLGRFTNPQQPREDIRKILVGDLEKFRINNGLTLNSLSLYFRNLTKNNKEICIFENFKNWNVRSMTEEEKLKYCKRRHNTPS
In short: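 Yeast transcription factors, full-length or as DNA-binding domains, were expressed with a GST tag using PURExpress in vitro transcription/translation. At about 100-200 nM they were applied to universal all-10-mer Agilent arrays, double-stranded by primer extension on fresh or once-stripped slides. Fluorescent anti-GST detected bound protein, and masliner normalised the scans. E-scores for ungapped eight-base words, pooled with reverse complements, came from the Universal PBM Analysis Suite.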

Going from GTCCAGGA to GCATTTCC, the “PBM E-score” value falls from 0.0561 to -0.0713.

Going from AGCGGCAT to AAATTTAT, the “PBM E-score” value rises from 0.0618 to 0.072.

First: CCGACTAG
Second: CTTAATGA
The “PBM E-score” value of the first is lower: -0.141 for the first, -0.0211 for the second.

Going from GACGATAA to AGAATCGC, the “PBM E-score” value falls from 0.0266 to -0.13.

Going from CACTATGC to GAGATTTA, the “PBM E-score” value falls from 0.125 to 0.0724.

Going from CGGCACAG to AACACTAC, the “PBM E-score” value rises from -0.119 to 0.00557.

Going from ATGCGGAA to CCACACGG, the “PBM E-score” value falls from 0.186 to 0.0495.

Going from GTCGTACA to GGATTGAC, the “PBM E-score” value rises from -0.144 to -0.0943.

First: CAAAGCTA
Second: ACGCCAAA
The “PBM E-score” value of the first is lower: -0.204 for the first, 0.0403 for the second.

First: AGCCGTGC
Second: ACTTAATA
The “PBM E-score” value of the first is lower: -0.0926 for the first, 0.0744 for the second.

Compared with CCGCGAAA, ACCTGAGG is lower in “PBM E-score” value: 0.0578 for the first, 0.0189 for the second.

Going from GCGATAGA to AAGATTAC, the “PBM E-score” value falls from 0.0698 to -0.09.

First: AAGTATCA
Second: ATCGTTGG
The “PBM E-score” value of the first is higher: -0.154 for the first, -0.247 for the second.

Going from GTTACCCA to ATATGCAC, the “PBM E-score” value rises from -0.141 to -0.0108.

Going from AGGTGGTC to GATCGGAC, the “PBM E-score” value rises from -0.0683 to -0.00114.

Going from GCCTGGAA to ACATGTAG, the “PBM E-score” value rises from 0.0457 to 0.189.

First: CAAACCAA
Second: ACACGCGG
The “PBM E-score” value of the first is higher: 0.0373 for the first, -0.0057 for the second.

Compared with GCTACACC, ATATAGCA is higher in “PBM E-score” value: -0.16 for the first, 0.126 for the second.

First: CGATAACA
Second: CGTTCAGA
The “PBM E-score” value of the first is lower: -0.0286 for the first, 0.0533 for the second.

Going from CGGCGATA to AGTACAAA, the “PBM E-score” value falls from 0.198 to -0.135.

Going from AAACTGCC to CGCTACCC, the “PBM E-score” value falls from -0.114 to -0.214.

Going from CAACACTG to ACACAAAT, the “PBM E-score” value rises from 0.0305 to 0.182.

First: AAGCATGG
Second: ACTGATAT
The “PBM E-score” value of the first is lower: -0.203 for the first, 0.0718 for the second.

First: AGCTAACC
Second: CCGCAGAG
The “PBM E-score” value of the first is lower: -0.145 for the first, -0.131 for the second.

Going from AACACGAG to ATTGCATA, the “PBM E-score” value falls from 0.0585 to -0.0467.

First: ATGATGCA
Second: CATCACTC
The “PBM E-score” value of the first is lower: -0.101 for the first, 0.00067 for the second.

Going from TCAGCCCA to GAAGCCTA, the “PBM E-score” value rises from -0.291 to 0.221.

First: AGTTGACG
Second: AGTGAGCC
The “PBM E-score” value of the first is higher: 0.0851 for the first, -0.184 for the second.

Compared with GATCAAAC, CTGTCACC is higher in “PBM E-score” value: -0.231 for the first, 0.0918 for the second.

First: CTTTAAAG
Second: CATGTCAG
The “PBM E-score” value of the first is higher: -0.0252 for the first, -0.182 for the second.

Going from CTAGAATC to GCTTGGCC, the “PBM E-score” value falls from 0.0358 to -0.0932.

First: CGGGGCAA
Second: CCTTCAAC
The “PBM E-score” value of the first is higher: -0.0073 for the first, -0.0179 for the second.

First: CCCGTACG
Second: ACGACTGG
The “PBM E-score” value of the first is lower: -0.27 for the first, -0.173 for the second.

Going from CCTGCCTC to ATCGTCAT, the “PBM E-score” value rises from -0.29 to 0.149.

First: CACTAACA
Second: ACACGAAC
The “PBM E-score” value of the first is higher: 0.0523 for the first, 0.0505 for the second.

First: CGTTTCAC
Second: CAATTAAA
The “PBM E-score” value of the first is lower: -0.0924 for the first, 0.157 for the second.

Compared with CGACGTCA, AGTAAACC is lower in “PBM E-score” value: -0.0398 for the first, -0.199 for the second.

Going from TTAGAGAA to CACGGACG, the “PBM E-score” value rises from -0.0293 to 0.0339.

Compared with CGCTTGCC, CAGGATCC is higher in “PBM E-score” value: -0.071 for the first, 0.345 for the second.

Compared with AGACTATA, AATTTCCT is higher in “PBM E-score” value: -0.0926 for the first, -0.044 for the second.

Going from AATAGTCC to GAACCCCC, the “PBM E-score” value rises from -0.197 to 0.0349.

First: ATGCCTCC
Second: CCCTCAGA
The “PBM E-score” value of the first is higher: 0.0648 for the first, -0.197 for the second.

Going from CGGACACA to ACCGAAGT, the “PBM E-score” value rises from -0.186 to -0.151.

Compared with GGGAGGAC, TCACTTCA is higher in “PBM E-score” value: -0.344 for the first, -0.082 for the second.

Compared with GCAACAAC, CGAAATAA is higher in “PBM E-score” value: -0.0872 for the first, 0.0588 for the second.

First: ATGCAATA
Second: AGTCCCAC
The “PBM E-score” value of the first is lower: -0.0876 for the first, -0.0297 for the second.

Compared with CGAATTCC, ACAACCAA is lower in “PBM E-score” value: 0.256 for the first, 0.0609 for the second.

Going from GAGCATAC to AAAGCTTA, the “PBM E-score” value rises from -0.155 to -0.0667.

Going from AGACATCT to AAGCGTTC, the “PBM E-score” value rises from 0.00522 to 0.0323.

Going from GATTCCCA to GCCTGGCA, the “PBM E-score” value falls from 0.334 to -0.0149.

Going from AATAAAAT to ATCTCCAC, the “PBM E-score” value falls from 0.11 to -0.0888.

Compared with AGCACCGG, GGTGTAGA is lower in “PBM E-score” value: 0.166 for the first, -0.122 for the second.

Going from ACTCGTTA to ATTAGTCC, the “PBM E-score” value rises from -0.226 to -0.152.

Going from AAGACACC to AAACTAAC, the “PBM E-score” value falls from -0.0424 to -0.0608.

Going from TCTCTCAA to AGACAACA, the “PBM E-score” value falls from -0.0205 to -0.17.

First: GGAGCGTA
Second: ACAAATAT
The “PBM E-score” value of the first is lower: 0.0423 for the first, 0.0851 for the second.

Compared with TCAGCGCA, ATGTGTGG is lower in “PBM E-score” value: 0.0204 for the first, -0.0628 for the second.

First: GATGCGCA
Second: GGCGGTAC
The “PBM E-score” value of the first is higher: 0.134 for the first, -0.107 for the second.

Compared with AGGTTTGA, AAGAGGAA is higher in “PBM E-score” value: 0.00972 for the first, 0.285 for the second.

First: CTGGTAAG
Second: ACATATTA
The “PBM E-score” value of the first is higher: 0.225 for the first, 0.179 for the second.

Compared with AGAATCAG, GAGTAATC is lower in “PBM E-score” value: 0.0153 for the first, 0.0146 for the second.

Compared with AAAATGTT, GTAAATCA is higher in “PBM E-score” value: 0.0999 for the first, 0.21 for the second.

First: GCTGGACC
Second: ATGTATCA
The “PBM E-score” value of the first is lower: -0.153 for the first, -0.0948 for the second.

Going from AACCGATT to CGAACCAC, the “PBM E-score” value rises from 0.00151 to 0.0103.

First: AGTGCTCC
Second: GGGACGGA
The “PBM E-score” value of the first is lower: -0.116 for the first, -0.0942 for the second.

Compared with AAGTACGA, GACTGCTC is lower in “PBM E-score” value: -0.0524 for the first, -0.26 for the second.

Going from GAAGCCGC to CGGAACAG, the “PBM E-score” value falls from 0.439 to -0.0225.

Compared with TCCCACCA, CAGGCATA is lower in “PBM E-score” value: 0.0307 for the first, -0.095 for the second.

Going from GATAGCAC to ACTCGTAT, the “PBM E-score” value falls from 0.0962 to 0.0663.

Compared with AGAGACCC, GTGAGCGA is higher in “PBM E-score” value: -0.196 for the first, -0.193 for the second.

Going from AGGCTGAA to AAGGGTGA, the “PBM E-score” value falls from -0.0502 to -0.182.

Compared with CCGTCTCC, CAGGAGCG is higher in “PBM E-score” value: -0.256 for the first, 0.154 for the second.

Compared with GACCGTGC, CACACTAA is higher in “PBM E-score” value: -0.101 for the first, -0.0887 for the second.

First: GACTGCTA
Second: CCGCCCAG
The “PBM E-score” value of the first is higher: -0.0477 for the first, -0.144 for the second.

Compared with ACTGCATA, ATTTAGCG is lower in “PBM E-score” value: 0.0703 for the first, 0.0447 for the second.

First: ACCACAAC
Second: GAGCGAAA
The “PBM E-score” value of the first is higher: 0.0974 for the first, 0.00366 for the second.

Compared with CGAGTCCA, CCCAGACC is lower in “PBM E-score” value: -0.051 for the first, -0.0513 for the second.

First: CAATGGAC
Second: CTCGGGCC
The “PBM E-score” value of the first is higher: 0.169 for the first, -0.107 for the second.

Going from ACTTAACT to CTGGGCTC, the “PBM E-score” value rises from -0.0577 to 0.146.

Going from GACATGTA to AAATGCCT, the “PBM E-score” value falls from -0.0841 to -0.153.

Compared with CATCTAAA, GCCTAGCA is lower in “PBM E-score” value: 0.161 for the first, -0.0891 for the second.

Compared with ACTGCAAC, GCCGAAGA is lower in “PBM E-score” value: 0.00696 for the first, -0.209 for the second.

Compared with GGGGCAAA, ATCCGGTC is lower in “PBM E-score” value: 0.0742 for the first, 0.0498 for the second.

Going from GTCCATAA to CCGGTCAG, the “PBM E-score” value falls from 0.137 to -0.0578.

Going from AATATCCT to GCATAGGA, the “PBM E-score” value rises from -0.0901 to -0.0895.

Compared with ATCTTACC, ATCTCCCA is higher in “PBM E-score” value: 0.0667 for the first, 0.12 for the second.
